Results reported in PMC4336329 (PLoS ONE, 2015).
About 2,200 (0.71%) of roughly 310,000 compounds showed an effect of 50% or more. The effect is printed as a negative number. The list shows a part of the results.

Molecular target: human ether-à-go-go-related gene (hERG) potassium channel (human, UniProt Q12809)
Experiment: primary screen, population patch clamp on CHO cells stably expressing hERG

human ether-à-go-go-related gene (hERG) potassium channel, sequence (Q12809 whole entry, looked up): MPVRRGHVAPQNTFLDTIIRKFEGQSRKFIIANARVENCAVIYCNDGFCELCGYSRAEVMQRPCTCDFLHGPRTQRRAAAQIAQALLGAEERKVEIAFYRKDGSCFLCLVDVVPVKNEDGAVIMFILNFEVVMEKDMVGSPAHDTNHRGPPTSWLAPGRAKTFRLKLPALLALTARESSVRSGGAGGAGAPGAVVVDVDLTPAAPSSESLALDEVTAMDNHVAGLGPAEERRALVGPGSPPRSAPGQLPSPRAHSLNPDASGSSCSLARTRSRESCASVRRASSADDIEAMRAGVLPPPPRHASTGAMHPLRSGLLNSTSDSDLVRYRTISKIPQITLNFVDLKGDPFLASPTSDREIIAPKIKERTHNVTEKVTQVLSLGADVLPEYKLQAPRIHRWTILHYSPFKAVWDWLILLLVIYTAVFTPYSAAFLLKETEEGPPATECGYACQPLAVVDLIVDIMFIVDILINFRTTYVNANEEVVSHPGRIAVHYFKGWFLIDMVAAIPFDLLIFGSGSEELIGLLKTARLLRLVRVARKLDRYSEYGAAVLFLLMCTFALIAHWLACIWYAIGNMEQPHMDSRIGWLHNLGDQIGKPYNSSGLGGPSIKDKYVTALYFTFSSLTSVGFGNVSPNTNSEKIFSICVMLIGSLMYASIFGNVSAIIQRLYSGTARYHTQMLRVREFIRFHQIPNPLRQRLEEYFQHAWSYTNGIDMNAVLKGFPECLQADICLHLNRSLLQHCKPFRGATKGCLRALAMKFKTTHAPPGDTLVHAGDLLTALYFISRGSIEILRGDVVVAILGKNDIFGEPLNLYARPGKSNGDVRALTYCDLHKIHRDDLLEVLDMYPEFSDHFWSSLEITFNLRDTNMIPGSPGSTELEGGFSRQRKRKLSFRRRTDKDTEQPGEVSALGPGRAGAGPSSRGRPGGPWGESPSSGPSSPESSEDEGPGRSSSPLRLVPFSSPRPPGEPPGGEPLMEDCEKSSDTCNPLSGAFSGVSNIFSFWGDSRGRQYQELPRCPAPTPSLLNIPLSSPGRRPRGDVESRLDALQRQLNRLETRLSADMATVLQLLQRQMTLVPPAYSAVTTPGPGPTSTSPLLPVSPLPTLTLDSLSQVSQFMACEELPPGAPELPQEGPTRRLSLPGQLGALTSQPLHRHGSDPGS

Question: Which “hERG current change (%, negative = inhibition) at 1uM” value does the source give for `C=CCNC(=O)CSc1nnc(-c2ccccn2)n1Cc1ccccc1` here?
Answer: 15.1%

Question: With `CCc1ccc(C(=O)NN(C(=O)c2ccc(CC)cc2)C(C)(C)C)cc1` as the molecule, how does the “hERG current change (%, negative = inhibition) at 1uM” value read?
Answer: 6.61%

Question: How did the “hERG current change (%, negative = inhibition) at 1uM” value turn out when `O=C1c2cccnc2C(=O)N1c1ccccc1-c1ccccc1` was run?
Answer: 18.6%

Question: Which “hERG current change (%, negative = inhibition) at 1uM” value does the source give for `Cc1cc(C)n2nc(SCCC(=O)NCCc3ccccc3)nc2n1` here?
Answer: -8.94%

Question: For `COC(=O)CCC(=O)NNC(=O)c1cccc(Br)c1`, which “hERG current change (%, negative = inhibition) at 1uM” value is on record?
Answer: 1.75%

Question: How did the “hERG current change (%, negative = inhibition) at 1uM” value turn out when `CCNS(=O)(=O)c1ccc(CCC(=O)N2CCN(c3ccccc3)CC2)cc1` was run?
Answer: 3.97%

Question: `O=C(NC(=S)Nc1cc(Cl)ccc1O)c1cccc(Br)c1` was tested. Which “hERG current change (%, negative = inhibition) at 1uM” value did it give?
Answer: 9.43%

Question: For `CC1c2cccn2CCN1S(=O)(=O)c1ccccc1` (stereo not shown), which “hERG current change (%, negative = inhibition) at 1uM” value is on record?
Answer: 14.6%

Question: Which “hERG current change (%, negative = inhibition) at 1uM” value does the source give for `CC(NC(=O)CN(C)S(=O)(=O)c1ccc(Br)s1)c1ccccc1` (stereo not shown) here?
Answer: 14.9%

Question: With `O=C(/C=C/c1ccccc1)NC(NC(=S)Nc1ccc(Cl)cc1)C(Cl)(Cl)Cl` (stereo not shown) as the molecule, how does the “hERG current change (%, negative = inhibition) at 1uM” value read?
Answer: 14.2%

Question: Which “hERG current change (%, negative = inhibition) at 1uM” value does the source give for `O=c1cc(-c2ccccc2)nc2nc[nH]n12` here?
Answer: 10.3%

Question: For `Cc1ccc(OCCNC(=O)c2ccccc2O)cc1`, which “hERG current change (%, negative = inhibition) at 1uM” value is on record?
Answer: 16.2%

Question: How did the “hERG current change (%, negative = inhibition) at 1uM” value turn out when `O=C(NCc1ccco1)c1cnn2c(C(F)(F)F)cc(-c3ccco3)nc12` was run?
Answer: 3.32%

Question: How did the “hERG current change (%, negative = inhibition) at 1uM” value turn out when `O=C(CN1CCN(Cc2ccccc2)CC1)N/N=C/c1cccnc1` was run?
Answer: 1.56%

Question: For `CCCN1Cc2cccc(C(=O)Nc3cc(OC)cc(OC)c3)c2C1=O`, which “hERG current change (%, negative = inhibition) at 1uM” value is on record?
Answer: 1.76%

Question: With `CCOc1nc2c(c(=O)n(C)c(=O)n2C)n1Cc1ccccc1Cl` as the molecule, how does the “hERG current change (%, negative = inhibition) at 1uM” value read?
Answer: -1.41%

Question: For `COCc1ccc(C(=O)NC2CCCc3c2cnn3-c2ccc(C)c(C)c2)o1` (stereo not shown), which “hERG current change (%, negative = inhibition) at 1uM” value is on record?
Answer: 0.936%

Question: How did the “hERG current change (%, negative = inhibition) at 1uM” value turn out when `CCOc1ccc(NC(=O)COC(=O)c2cccnc2)cc1` was run?
Answer: 14.5%

Question: For `CC(=O)c1cn(S(=O)(=O)c2ccccc2)c2ccccc12`, which “hERG current change (%, negative = inhibition) at 1uM” value is on record?
Answer: 7.31%

Question: With `Cc1cc(OCC(=O)Nc2ccc3c(c2)OCCO3)ccc1Cl` as the molecule, how does the “hERG current change (%, negative = inhibition) at 1uM” value read?
Answer: 11.9%

Question: How did the “hERG current change (%, negative = inhibition) at 1uM” value turn out when `N/C(=N\OC(=O)Cc1ccc(Cl)cc1)c1ccncc1` was run?
Answer: 4.51%

Question: For `c1ccc(-c2nc3nonc3c3nc4ccccc4n23)cc1`, which “hERG current change (%, negative = inhibition) at 1uM” value is on record?
Answer: -1.03%

Question: With `O=C(OCC(=O)c1c[nH]c2ccccc12)c1cc(Br)ccc1O` as the molecule, how does the “hERG current change (%, negative = inhibition) at 1uM” value read?
Answer: 8.79%

Question: With `Cc1cccc(NC(=O)c2cccc(S(=O)(=O)N(C)c3ccccc3)c2)n1` as the molecule, how does the “hERG current change (%, negative = inhibition) at 1uM” value read?
Answer: -0.556%

Question: Which “hERG current change (%, negative = inhibition) at 1uM” value does the source give for `CSc1ccc(CNc2ncc(-c3cccc([N+](=O)[O-])c3)n2C)cc1.O=C(O)C(=O)O` here?
Answer: -26.5%

Question: How did the “hERG current change (%, negative = inhibition) at 1uM” value turn out when `COc1ccc2oc(C(=O)OCC(=O)NC3CCCCC3)c(C)c2c1` was run?
Answer: 0.968%

Question: Which “hERG current change (%, negative = inhibition) at 1uM” value does the source give for `COc1ccccc1C(=O)NC(=O)CSc1nncn1C` here?
Answer: 18.2%

Question: With `O=C(CCC1CCCC1)N1CCN(S(=O)(=O)c2ccc(Br)cc2)CC1` as the molecule, how does the “hERG current change (%, negative = inhibition) at 1uM” value read?
Answer: 9.73%

Question: How did the “hERG current change (%, negative = inhibition) at 1uM” value turn out when `CC(C)CC(C(=O)NCC1CCCO1)N(C(=O)Cn1nnc(-c2ccc(F)cc2)n1)c1cccc(C(F)(F)F)c1` (stereo not shown) was run?
Answer: 11.7%

Question: For `CC(C)(C)OC(=O)N1CCC2(CC1)Oc1ccc(F)cc1C(=O)C21CC(c2cccnc2)=NO1` (stereo not shown), which “hERG current change (%, negative = inhibition) at 1uM” value is on record?
Answer: 15.8%

Question: With `CN(Cc1nc(-c2cnccn2)no1)Cc1cccc2ccccc12` as the molecule, how does the “hERG current change (%, negative = inhibition) at 1uM” value read?
Answer: 7.66%

Question: With `COc1ccc(-c2[nH]ncc2/C=N/NC(=O)c2ccc(Br)cc2)c(OC)c1` as the molecule, how does the “hERG current change (%, negative = inhibition) at 1uM” value read?
Answer: 4.05%

Question: For `CCCc1nc(SCC(=O)N2CCCC2)c2c(=O)n(C)c(=O)n(C)c2n1`, which “hERG current change (%, negative = inhibition) at 1uM” value is on record?
Answer: 2.37%

Question: `COc1ccc(C2N(C(=O)CN3CCCC3)CCCN2S(=O)(=O)c2ccccc2)cc1` (stereo not shown) was tested. Which “hERG current change (%, negative = inhibition) at 1uM” value did it give?
Answer: 4.43%

Question: How did the “hERG current change (%, negative = inhibition) at 1uM” value turn out when `COc1ccc(C(=O)Nc2ccccc2C(=O)N/N=C/c2cccc3ccccc23)cc1` was run?
Answer: 21.1%

Question: For `COc1cc(/C=C/C(=O)O)cc(S(=O)(=O)NCCO)c1OC`, which “hERG current change (%, negative = inhibition) at 1uM” value is on record?
Answer: 5.69%

Question: `COC(=O)c1ccc(NC(=O)CCNS(=O)(=O)c2cccc3nonc23)cc1` was tested. Which “hERG current change (%, negative = inhibition) at 1uM” value did it give?
Answer: 8.69%

Question: For `O=C1CSC(=S)N1N=C1CCCCCC1`, which “hERG current change (%, negative = inhibition) at 1uM” value is on record?
Answer: 8.32%

Question: How did the “hERG current change (%, negative = inhibition) at 1uM” value turn out when `O=C(O)c1ccc(NC(=O)c2cccc(S(=O)(=O)Nc3ccc(C(=O)O)cc3)c2)cc1` was run?
Answer: 20.4%

Question: `CCOC(=O)/C=c1\s/c(=C(\C#N)C(=O)OCC)n(-c2ccccc2)c1=O` was tested. Which “hERG current change (%, negative = inhibition) at 1uM” value did it give?
Answer: 4.49%

Question: Which “hERG current change (%, negative = inhibition) at 1uM” value does the source give for `CC(C)N(Cc1nc(-c2ccccc2)no1)C(=O)c1ccc(Br)o1` here?
Answer: 13.9%

Question: `CCC(Sc1ncccc1C(=O)Oc1cccc([N+](=O)[O-])c1)C(=O)Nc1ccccc1OC` (stereo not shown) was tested. Which “hERG current change (%, negative = inhibition) at 1uM” value did it give?
Answer: 7.33%

Question: `CCOC(=O)CC1C(=O)NCCN1C(=S)Nc1ccccc1` (stereo not shown) was tested. Which “hERG current change (%, negative = inhibition) at 1uM” value did it give?
Answer: 15.4%
